In the supplement of paper PMC8728848:
Some of the results follow.

Legend:
Test in all cases: glycan array binding signal (z-score within array); higher = stronger binding
Settings in all cases: glycan notation: IUPAC condensed, linker removed
[1] = molecular target: Fuc(a1-2)Gal(b1-4)GlcNAc(b1-3)Gal(b1-4)GlcNAc(b1-3)Gal(b1-4)GlcNAc
Summary of the method: (§1)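 Columns mapping to the same glycan were averaged after glycan names were converted to IUPAC-condensed notation. The data come from 3228 arrays in the Consortium for Functional Glycomics database, limited to those with an available protein sequence. Binding is reported as a within-array Z-score averaged across arrays of one protein sequence and across linkers.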

[2] = molecular target: Fuc(a1-2)Gal(b1-4)GlcNAc(b1-3)GalNAc
Summary of the method: as §1

[3] = molecular target: Fuc(a1-2)Gal(b1-4)GlcNAc(b1-3)[Fuc(a1-2)Gal(b1-4)GlcNAc(b1-6)]GalNAc
Summary of the method: as §1

[4] = molecular target: Fuc(a1-2)Gal(b1-4)GlcNAc(b1-3)[Fuc(a1-3)[Gal(b1-4)]GlcNAc(b1-6)]Gal(b1-4)Glc
Summary of the method: as §1

[5] = molecular target: Fuc(a1-2)Gal(b1-4)GlcNAc(b1-6)GalNAc
Summary of the method: as §1

[6] = molecular target: Fuc(a1-2)Gal(b1-4)GlcNAc6S
Summary of the method: as §1

[7] = molecular target: Fuc(a1-2)Gal(b1-4)[Fuc(a1-3)]GlcNAc
Summary of the method: as §1

[8] = molecular target: Fuc(a1-2)Gal(b1-4)[Fuc(a1-3)]GlcNAc(b1-2)Man(a1-3)[Fuc(a1-2)Gal(b1-4)[Fuc(a1-3)]GlcNAc(b1-2)Man(a1-6)]Man(b1-4)GlcNAc(b1-4)[Fuc(a1-6)]GlcNAc
Summary of the method: as §1

[9] = molecular target: Fuc(a1-2)Gal(b1-4)[Fuc(a1-3)]GlcNAc(b1-2)[Fuc(a1-2)Gal(b1-4)[Fuc(a1-3)]GlcNAc(b1-4)]Man(a1-3)[Fuc(a1-2)Gal(b1-4)[Fuc(a1-3)]GlcNAc(b1-2)Man(a1-6)]Man(b1-4)GlcNAc(b1-4)GlcNAc
Summary of the method: as §1

[10] = molecular target: Fuc(a1-2)Gal(b1-4)[Fuc(a1-3)]GlcNAc(b1-3)Gal(b1-4)[Fuc(a1-3)]GlcNAc
Summary of the method: as §1

[11] = molecular target: Fuc(a1-2)Gal(b1-4)[Fuc(a1-3)]GlcNAc(b1-3)Gal(b1-4)[Fuc(a1-3)]GlcNAc(b1-3)Gal(b1-4)[Fuc(a1-3)]GlcNAc
Summary of the method: as §1

[12] = molecular target: Fuc(a1-2)Gal(b1-4)[Fuc(a1-3)]GlcNAc(b1-3)GalNAc
Summary of the method: as §1

[13] = molecular target: Fuc(a1-2)Gal(b1-4)[Fuc(a1-3)]GlcNAc(b1-3)[Neu5Ac(a2-6)Gal(b1-4)GlcNAc(b1-6)]Gal(b1-4)Glc
Summary of the method: as §1

[14] = molecular target: Fuc(a1-2)Gal3S(b1-4)GlcNAc
Summary of the method: as §1

[15] = molecular target: Fuc(a1-2)Gal6S(b1-3)GlcNAc
Summary of the method: as §1

[16] = molecular target: Fuc(a1-2)Gal6S(b1-3)GlcNAc6S
Summary of the method: as §1

Fuc(a1-2)Gal6S(b1-4)Glc = molecular target: Fuc(a1-2)Gal6S(b1-4)Glc
Summary of the method: as §1

[17] = molecular target: Fuc(a1-2)Gal6S(b1-4)Glc6S
Summary of the method: as §1

Fuc(a1-2)[Gal(a1-3)]Gal = molecular target: Fuc(a1-2)[Gal(a1-3)]Gal
Summary of the method: as §1

[18] = molecular target: Fuc(a1-2)[Gal(a1-3)]Gal(b1-3)GalNAc
Summary of the method: as §1

[19] = molecular target: Fuc(a1-2)[Gal(a1-3)]Gal(b1-3)GalNAc(b1-3)Gal(a1-4)Gal(b1-4)Glc
Summary of the method: as §1

[20] = molecular target: Fuc(a1-2)[Gal(a1-3)]Gal(b1-3)GlcNAc
Summary of the method: as §1

[21] = molecular target: Fuc(a1-2)[Gal(a1-3)]Gal(b1-3)GlcNAc(b1-2)Man(a1-3)[Fuc(a1-2)[Gal(a1-3)]Gal(b1-3)GlcNAc(b1-2)Man(a1-6)]Man(b1-4)GlcNAc(b1-4)GlcNAc
Summary of the method: as §1

[22] = molecular target: Fuc(a1-2)[Gal(a1-3)]Gal(b1-3)GlcNAc(b1-2)Man(a1-3)[Fuc(a1-2)[Gal(a1-3)]Gal(b1-3)GlcNAc(b1-2)Man(a1-6)]Man(b1-4)GlcNAc(b1-4)[Fuc(a1-6)]GlcNAc
Summary of the method: as §1

[23] = molecular target: Fuc(a1-2)[Gal(a1-3)]Gal(b1-3)GlcNAc(b1-3)GalNAc
Summary of the method: as §1

[24] = molecular target: Fuc(a1-2)[Gal(a1-3)]Gal(b1-3)GlcNAc(b1-6)GalNAc
Summary of the method: as §1

[25] = molecular target: Fuc(a1-2)[Gal(a1-3)]Gal(b1-4)Glc
Summary of the method: as §1

[26] = molecular target: Fuc(a1-2)[Gal(a1-3)]Gal(b1-4)GlcNAc
Summary of the method: as §1

[27] = molecular target: Fuc(a1-2)[Gal(a1-3)]Gal(b1-4)GlcNAc(b1-2)Man
Summary of the method: as §1

[28] = molecular target: Fuc(a1-2)[Gal(a1-3)]Gal(b1-4)GlcNAc(b1-2)Man(a1-3)[Fuc(a1-2)[Gal(a1-3)]Gal(b1-4)GlcNAc(b1-2)Man(a1-6)]Man(b1-4)GlcNAc(b1-4)GlcNAc
Summary of the method: as §1

B1: FGFR2-Fc (protein)
chain: MVNVTDAISSGDDEDDTDGAEDFVSENSNNKRAPYWTNTEKMEKRLHAVPAANTVKFRCPAGGNPMPTMRWLKNGKEFKQEHRIGGYKVRNQHWSLIMESVVPSDKGNYTCVVENEYGSINHTYHLDVVERSPHRPILQAGLPANASTVVGGDVEFVCKVYSDAQPHIQWIKHVEKNGSKYGPDGLPYLKVLKHSGINSSNAEVLALFNVTEADAGEYICKVSNYIGQANQSAWLTVLPKQQAPGREKEITASPDYLETRPLEQKLISEEDLAANDILDYKDDDDKV
[1]
  glycan array binding signal (z-score): 0.121
[2]
  glycan array binding signal (z-score): -0.058
[3]
  glycan array binding signal (z-score): -0.13
[4]
  glycan array binding signal (z-score): 0.233
[5]
  glycan array binding signal (z-score): -0.267
[6]
  glycan array binding signal (z-score): 0.683
[7]
  glycan array binding signal (z-score): 0.349
[8]
  glycan array binding signal (z-score): 0.212
[9]
  glycan array binding signal (z-score): 0.812
[10]
  glycan array binding signal (z-score): 0.919
[11]
  glycan array binding signal (z-score): -0.25
[12]
  glycan array binding signal (z-score): -0.401
[13]
  glycan array binding signal (z-score): -0.32
[14]
  glycan array binding signal (z-score): -0.391
[15]
  glycan array binding signal (z-score): -0.744
[16]
  glycan array binding signal (z-score): 0.019
Fuc(a1-2)Gal6S(b1-4)Glc
  glycan array binding signal (z-score): -0.378
[17]
  glycan array binding signal (z-score): -0.603
Fuc(a1-2)[Gal(a1-3)]Gal
  glycan array binding signal (z-score): 0.211
[18]
  glycan array binding signal (z-score): 0.062
[19]
  glycan array binding signal (z-score): -0.58
[20]
  glycan array binding signal (z-score): -0.345
[21]
  glycan array binding signal (z-score): -0.096
[22]
  glycan array binding signal (z-score): -0.319
[23]
  glycan array binding signal (z-score): -0.093
[24]
  glycan array binding signal (z-score): 0.66
[25]
  glycan array binding signal (z-score): -0.002
[26]
  glycan array binding signal (z-score): -0.525
[27]
  glycan array binding signal (z-score): -0.6
[28]
  glycan array binding signal (z-score): 0.745
